From the supplement of paper PMC10037445
“And” between values parts separate entries of the source, which are not always exact repeats. Equal entries are not always repeated. Over roughly 2,900 compounds, “IRF Lucia reporter activity, fold change vs agonist alone” has its median near 0.9; the highest 2% begin near 2.8. Some of the results follow.

Key:
RAW-Dual [1] = test: IRF Lucia reporter activity, fold change vs agonist alone; cytotoxicity flag (confluency mask): not cytotoxic; higher = enhanced IRF activity
Method in brief: (§1)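 RAW-Dual macrophages were seeded in DMEM at 50,000 cells/well in 384-well plates, given 50 nL of library stock by pin tool, and given a PRR agonist 1 h later. Plates were held at 37 °C, 5% CO2 for 20 hours, after which supernatant was read for IRF by QuantiLuc luminescence and for NF-κB by QuantiBlue absorbance at 620 nm. Reporter activity is expressed as fold change over wells that received agonist alone. A well was called cytotoxic when IncuCyte confluency fell below 70% of agonist controls in both mask sets.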

RAW-Dual [2] = test: IRF Lucia reporter activity, fold change vs agonist alone; higher = enhanced IRF activity; settings: library stock concentration (final ~1000-fold dilution): 10 mM; cytotoxicity flag (confluency mask): not cytotoxic; agonist: MPLA (TLR4) […]
Method in brief: as §1

RAW-Dual [3] = test: IRF Lucia reporter activity, fold change vs agonist alone; cytotoxicity flag (confluency mask): cytotoxic (confluency <70% of control); higher = enhanced IRF activity
Method in brief: as §1

[4] = agonist: 3'3'-cGAMP (STING) 10 ug/mL

## COc1c2occc2cc2ccc(=O)oc12 (library stock concentration (final ~1000-fold dilution): 10 mM)
RAW-Dual [1]; [4]
  IRF Lucia reporter activity: 0.954
RAW-Dual [1]; agonist: LPS (TLR4) 0.1 ug/mL
  IRF Lucia reporter activity: 0.789

## COc1c2occc2cc2ccc(=O)oc12
RAW-Dual [2]
  IRF Lucia reporter activity: 0.887

## CC(C)CC(N)=O
RAW-Dual [2]
  IRF Lucia reporter activity: 0.951

## CC(C)CC(N)=O (library stock concentration (final ~1000-fold dilution): 10 mM)
RAW-Dual [1]; [4]
  IRF Lucia reporter activity: 0.965
RAW-Dual [1]; agonist: LPS (TLR4) 0.1 ug/mL
  IRF Lucia reporter activity: 0.766

## Cc1nccn1CC1CCc2c(c3ccccc3n2C)C1=O.Cl (stereo not drawn)
RAW-Dual [2]
  IRF Lucia reporter activity: 0.965

## Cc1nccn1CC1CCc2c(c3ccccc3n2C)C1=O.Cl (stereo not drawn) (library stock concentration (final ~1000-fold dilution): 10 mM)
RAW-Dual [1]; [4]
  IRF Lucia reporter activity: 0.921
RAW-Dual [1]; agonist: LPS (TLR4) 0.1 ug/mL
  IRF Lucia reporter activity: 0.876

## C=C1C(=O)OC2/C=C(\C)CC/C=C(\C)CCC12 (stereo not drawn)
RAW-Dual [2]
  IRF Lucia reporter activity: 0.0253

## C=C1C(=O)OC2/C=C(\C)CC/C=C(\C)CCC12 (stereo not drawn) (library stock concentration (final ~1000-fold dilution): 10 mM)
RAW-Dual [1]; [4]
  IRF Lucia reporter activity: 0.0115
RAW-Dual [1]; agonist: LPS (TLR4) 0.1 ug/mL
  IRF Lucia reporter activity: 0.0201

## CC(=O)OC1CC2(C)C(CC(O)C3C4(C)CCC(O)C(C)C4CCC32C)/C1=C(\CCC=C(C)C)C(=O)O (stereo not drawn)
RAW-Dual [2]
  IRF Lucia reporter activity: 1.01

## CC(=O)OC1CC2(C)C(CC(O)C3C4(C)CCC(O)C(C)C4CCC32C)/C1=C(\CCC=C(C)C)C(=O)O (stereo not drawn) (library stock concentration (final ~1000-fold dilution): 10 mM)
RAW-Dual [1]; [4]
  IRF Lucia reporter activity: 0.902
RAW-Dual [1]; agonist: LPS (TLR4) 0.1 ug/mL
  IRF Lucia reporter activity: 1.31

## Cc1nnc(C(=O)NC(C)(C)c2nc(C(=O)NCc3ccc(F)cc3)c(O)c(=O)n2C)o1 (library stock concentration (final ~1000-fold dilution): 10 mM)
RAW-Dual [1]; [4]
  IRF Lucia reporter activity: 1.01 and 1.06
RAW-Dual [1]; agonist: LPS (TLR4) 0.1 ug/mL
  IRF Lucia reporter activity: 1.34 and 0.978

## COC(=O)c1ccc2c(c1)nc(NC(=O)c1ccccc1)n2CCCc1ccccc1 (library stock concentration (final ~1000-fold dilution): 10 mM)
RAW-Dual [1]; [4]
  IRF Lucia reporter activity: 0.992
RAW-Dual [1]; agonist: LPS (TLR4) 0.1 ug/mL
  IRF Lucia reporter activity: 1.27

## CN1CCN(Cc2ccc(Nc3ncc(Cl)c(Nc4ccccc4S(=O)(=O)N(C)C)n3)cc2)CC1 (library stock concentration (final ~1000-fold dilution): 2 mM)
RAW-Dual [3]; [4]
  IRF Lucia reporter activity: 0.0995
RAW-Dual [3]; agonist: LPS (TLR4) 0.1 ug/mL
  IRF Lucia reporter activity: 0.0212

## c1ccc(NCc2ccc(CNc3ccccn3)cc2)nc1
RAW-Dual [2]
  IRF Lucia reporter activity: 1

## c1ccc(NCc2ccc(CNc3ccccn3)cc2)nc1 (library stock concentration (final ~1000-fold dilution): 10 mM)
RAW-Dual [1]; [4]
  IRF Lucia reporter activity: 0.988
RAW-Dual [1]; agonist: LPS (TLR4) 0.1 ug/mL
  IRF Lucia reporter activity: 0.989

## O=C(NC(C1CC1)C(F)(F)F)c1cc(-c2cnn3cc(-c4ccc(F)cc4)cnc23)cs1 (stereo not drawn) (library stock concentration (final ~1000-fold dilution): 10 mM)
RAW-Dual [1]; [4]
  IRF Lucia reporter activity: 0.0246
RAW-Dual [1]; agonist: LPS (TLR4) 0.1 ug/mL
  IRF Lucia reporter activity: 0.0248

## CC(C)(C)C1NC(=O)OC2CCCC2OC/C=C/C(F)(F)c2nc3ccccc3nc2OC2CC(C(=O)NC3(C(=O)NS(=O)(=O)C4(C)CC4)CC3C(F)F)N(C2)C1=O (stereo not drawn) (library stock concentration (final ~1000-fold dilution): 10 mM)
RAW-Dual [1]; [4]
  IRF Lucia reporter activity: 0.867
RAW-Dual [1]; agonist: LPS (TLR4) 0.1 ug/mL
  IRF Lucia reporter activity: 1.1

## CC(C)(C)C1NC(=O)OC2CCCC2OC/C=C/C(F)(F)c2nc3ccccc3nc2OC2CC(C(=O)NC3(C(=O)NS(=O)(=O)C4(C)CC4)CC3C(F)F)N(C2)C1=O (stereo not drawn)
RAW-Dual [2]
  IRF Lucia reporter activity: 0.932

## CC(=O)OC1(C(C)=O)CCC2C3C=C(Cl)C4=CC(=O)C5CC5C4(C)C3CCC21C (stereo not drawn) (library stock concentration (final ~1000-fold dilution): 10 mM)
RAW-Dual [1]; [4]
  IRF Lucia reporter activity: 1.06
RAW-Dual [1]; agonist: LPS (TLR4) 0.1 ug/mL
  IRF Lucia reporter activity: 0.811

## CC(=O)OC1(C(C)=O)CCC2C3C=C(Cl)C4=CC(=O)C5CC5C4(C)C3CCC21C (stereo not drawn)
RAW-Dual [2]
  IRF Lucia reporter activity: 0.878

## CCN(CC)CC#CCOC(=O)C(O)(c1ccccc1)C1CCCCC1.Cl (stereo not drawn) (library stock concentration (final ~1000-fold dilution): 10 mM)
RAW-Dual [1]; [4]
  IRF Lucia reporter activity: 1
RAW-Dual [1]; agonist: LPS (TLR4) 0.1 ug/mL
  IRF Lucia reporter activity: 1.33

## CCN(CC)CC#CCOC(=O)C(O)(c1ccccc1)C1CCCCC1.Cl (stereo not drawn)
RAW-Dual [2]
  IRF Lucia reporter activity: 1.47

## O=C(O)Cc1ccc(-c2ccccc2)cc1 (library stock concentration (final ~1000-fold dilution): 10 mM)
RAW-Dual [1]; [4]
  IRF Lucia reporter activity: 0.985
RAW-Dual [1]; agonist: LPS (TLR4) 0.1 ug/mL
  IRF Lucia reporter activity: 0.941

## O=C(O)Cc1ccc(-c2ccccc2)cc1
RAW-Dual [2]
  IRF Lucia reporter activity: 1.01

## CCCOc1ccc(S(=O)(=O)NCCC2CCCN2C)cc1-c1nc(=O)c2c([nH]1)c(CCC)nn2C (stereo not drawn)
RAW-Dual [2]
  IRF Lucia reporter activity: 1.27

## CCCOc1ccc(S(=O)(=O)NCCC2CCCN2C)cc1-c1nc(=O)c2c([nH]1)c(CCC)nn2C (stereo not drawn) (library stock concentration (final ~1000-fold dilution): 10 mM)
RAW-Dual [1]; [4]
  IRF Lucia reporter activity: 0.655
RAW-Dual [1]; agonist: LPS (TLR4) 0.1 ug/mL
  IRF Lucia reporter activity: 0.969

## CC1CNCCCN1S(=O)(=O)c1cccc2cncc(F)c12.Cl.O.O (stereo not drawn) (library stock concentration (final ~1000-fold dilution): 10 mM)
RAW-Dual [1]; [4]
  IRF Lucia reporter activity: 0.884
RAW-Dual [1]; agonist: LPS (TLR4) 0.1 ug/mL
  IRF Lucia reporter activity: 1.03
